Structures are written as SMILES. Hit rate of the full screen: of about 150,000 compounds, about 540 (0.36%) showed an effect of 50% or more. The list shows a part of the results.

The assay relates to Plasmodium falciparum. Briefly: Primary screen in NF54 nanoGlo assay, in single point, at 2uM, 72h; a lower Z score goes with more inhibition. Type of assay: functional, Erythrocyte. The following applies: timepoint 72 hour.
As to `Cn1cnn(CC(=O)N[C@H]2CCN(c3ccc(Cl)cc3)C2)c1=O`, the % Inhibition (in general, the change of the read-out against control, counted positive when it falls) is listed as -13% and the Z score turned out to be 1.34.
On the same counts, the results for `CN(CC1CCOCC1)c1nc2nonc2nc1NC1CCCC1` are -7% and 1.1.
Regarding `CN1CCN(C[C@@H]2CN(C(=O)c3cc4ccccc4s3)C[C@@H]2CO)CC1`, the “% Inhibition” value is recorded as -5% and the Z score was found to be 0.83.
For `Cc1ccc(F)c(CNc2nnc([C@@H]3CCCO3)o2)c1`, the “% Inhibition” value is reported as -14% and the Z score is recorded as 1.58.
For `COc1ccccc1C(=O)N1CCc2nc(N3CCN(C)CC3)nc(Oc3ccc(C)cc3)c2C1` the same measures were 0% and 0.02.
On the same counts, the results for `CCOCCC1(CNC(=O)c2ccc3nc4n(c3c2)CCC4)CCC1` are -8% and 1.13.
Turning to `CC(C)CN(CN1C(=O)c2cc(Cl)c(Cl)cc2C1=O)C1CC1`, the “% Inhibition” value is -1% and the Z score amounted to 0.16.
On the same counts, the results for `CN1CCC(n2nccc2NC(=O)c2sccc2Cl)CC1` are -10% and 1.28.
As for `O=C(O[C@@H](Cc1ccccc1)c1ccccc1)c1cnn2cccnc12`, the “% Inhibition” value is -3% and the Z score came out at 0.45.
On the same counts, the results for `O=C(COc1ccc2c(c1)OCO2)NCc1ccccn1` are 1% and -0.21.
For `O=C(NC1CC1)C1CCCC(NCc2cccc3cn[nH]c23)C1` (stereo not given) the same measures were -3% and 0.29.
For `C#CC[C@H](OC(=O)c1cnn(C)c1)c1ccccn1` the same measures were -15% and 2.38.
Consider `O=C(Cc1cccs1)NC1CCN(c2nnc3ccc(Cl)cn23)CC1`, for which the “% Inhibition” value is recorded as 41% and the Z score is given as -4.68.
For `Cc1ccccc1-c1cc2n(n1)CCC(=O)N2CC(=O)N1CCN(c2ccccc2)CC1`, the “% Inhibition” value is recorded as -8% and the Z score is 0.79.
As to `CC(C)C[C@@H](C(=O)N1Cc2cccnc2C1)c1ccccc1`, the “% Inhibition” value is 28% and the Z score is -3.2.
For the molecule `Cc1c([C@H](C)NCc2ccnn2C2CCCC2)cnn1C`, the “% Inhibition” value is reported as -1% and the Z score is reported as 0.13.
On the same counts, the results for `COCc1ccc(C(=O)N(CC(C)C)CC2CCN(Cc3ccccc3OC)CC2)s1` are -9% and 1.36.
On the same counts, the results for `COc1cnc(NC(=O)N(C)Cc2c(C)cccc2C)s1` are -13% and 1.38.
For `Cn1c(=O)c2c(nc3n2CC(=O)N3c2ccc(F)cc2F)n(C)c1=O` the same measures were -10% and 1.22.
With `CCN1CCO[C@@H](CNCc2c(C)nn(CC(C)C)c2Cl)C1`, the “% Inhibition” value was -5% and the Z score worked out at 0.77.
As for `C[C@H](OC(=O)c1ccc(N(C)C)cc1)C(N)=O`, the “% Inhibition” value is given as -2% and the Z score is given as 0.28.
For `CC(=O)NCCn1cnc(-c2ccccc2)c1-c1cccn1-c1cccnc1`, the “% Inhibition” value is -2% and the Z score is reported as 0.33.
For `Cc1ccc2cc1Oc1cccc(c1)CO[C@H]1CN(C(=O)CN(C)C)C[C@@H]1NC(=O)CN(C)C2=O` the same measures were -6% and 1.19.
On the same counts, the results for `O=C(Nc1nc(C2CC2)cs1)c1cc(Cl)c[nH]1` are 2% and -0.36.
As for `CCc1[nH]nc(CCc2ccccc2)c1NC(=O)c1ccc(C(F)(F)F)cc1`, the “% Inhibition” value is -12% and the Z score is recorded as 1.49.
Take `CC(C)(C)CC(=O)N1CCCC[C@H]1C(=O)N1CCOCC1`: the “% Inhibition” value came to 3% and the Z score is -0.3.
Consider `Cc1nn(C)c(C)c1CCC(=O)NC[C@@]12CCC[C@H]1N(CC1CCCCC1)C(=O)CC2`, for which the “% Inhibition” value is reported as 6% and the Z score is listed as -0.73.
For `COc1ccc(C(=O)N2CCN(C3CCC3)C[C@H](C)C2)nc1` the same measures were 1% and -0.08.
On to `CCC(NC(=O)NCc1cnn(CC(F)(F)F)c1)C1CCCCO1` (stereo not given), for which the “% Inhibition” value is recorded as -14% and the Z score was found to be 1.63.
For `c1cn(C[C@H]2CCCCN2CCCN2CCCCC2)nn1` the same measures were -10% and 1.
Consider `CN(Cc1ccccc1)C[C@H]1CCCN(CCO)C1`, for which the “% Inhibition” value is given as -11% and the Z score is listed as 1.81.
As for `NC(=O)N[C@H]1CCN(C(=O)CCc2ccccc2N2CCOCC2)C1`, the “% Inhibition” value is recorded as -3% and the Z score stood at 0.57.
In the case of `COc1ccc(CCNC(=O)N2C(=O)CCC2=O)cc1OC`, the “% Inhibition” value is -15% and the Z score came to 2.05.
For the molecule `O=C(NC1(c2ccc(F)cc2F)CCCCC1)c1cc[nH]c(=O)c1`, the “% Inhibition” value is given as -10% and the Z score is 1.37.
On to `CC[C@@H](C(=O)N1CCn2cncc2C1)n1cccn1`, for which the “% Inhibition” value came out at 4% and the Z score was -0.76.
With `FC(F)(F)c1cc(Oc2ncnc3[nH]ccc23)ccc1Cl`, the “% Inhibition” value came to 6% and the Z score is -1.16.
On the same counts, the results for `Cc1cccnc1[C@@H](NC(=O)Nc1ccn(CCN(C)C)n1)C(C)C` are -7% and 1.37.
As for `COc1ccc(N[C@H]2CC(=O)N(c3cccc(Cl)c3C)C2=O)cc1S(=O)(=O)N1CCOCC1`, the “% Inhibition” value is -8% and the Z score turned out to be 1.12.
For `CCCN1CCC(c2nnc3n2CCN(C(=O)Nc2cccc(C)c2C)C3)CC1` the same measures were -3% and 0.51.
For the molecule `COc1ncccc1-c1nc(-c2cccc(NC(=O)c3ccccc3F)c2)no1`, the “% Inhibition” value was -4% and the Z score worked out at 0.55.
On the same counts, the results for `CCCCn1nc(C(=O)N2CCNC(=O)C2)ccc1=O` are -7% and 1.16.
For `COC(=O)[C@@]12CCCC[C@@H]1CN(S(=O)(=O)N(C)C)C2` the same measures were -5% and 0.78.
As for `C[C@H](NC(=O)c1coc(COc2cccc(F)c2)n1)c1nnn[nH]1`, the “% Inhibition” value is on record as -1% and the Z score was 0.19.
With `O=C([C@H](O)c1cccnc1)N1CCn2c(cnc2C(F)(F)F)C1`, the “% Inhibition” value was -3% and the Z score stood at 0.47.
As for `O=C(CCc1ccccc1)Nc1[nH]nnc1C(=O)N1CCCC1`, the “% Inhibition” value was -6% and the Z score is recorded as 0.87.
For `COC(=O)CN(CC(=O)OC(C)(C)C)C(=O)COCC1CC1` the same measures were -5% and 0.63.
On to `COc1ccccc1CN1C(=O)CN(c2ccccc2)C(=O)[C@@H]1c1ccncc1`, for which the “% Inhibition” value is reported as -1% and the Z score is 0.18.
With `COCCOC1CCC(C(=O)Nc2ccc(C)nc2O)CC1` (stereo not given), the “% Inhibition” value turned out to be 2% and the Z score is -0.19.
For `O=S(=O)(Nc1cccc(-c2nnc3n2CCC3)c1)c1ccc(F)cc1F` the same measures were -4% and 0.5.
For `C[C@H]1CN(C(=O)COC(=O)c2ccc3c(c2)OCCCO3)CCO1` the same measures were 0% and 0.05.
Turning to `CCN(C(=O)c1cc[nH]c(=O)c1)[C@@H](Cc1ccc(F)cc1)C(C)C`, the “% Inhibition” value is listed as -4% and the Z score was 0.55.
On the same counts, the results for `COc1cccc(CNC(=O)NCCc2nc3cccnc3n2Cc2ccccc2)c1` are -32% and 2.86.
As for `COc1cccc(C(=O)N2CCN(C(=O)CCc3ccccn3)CC2)c1`, the “% Inhibition” value was 9% and the Z score is recorded as -1.2.
With `Cc1ccc(C(=O)N2CCC[C@@](O)(C(F)(F)F)C2)nc1C`, the “% Inhibition” value was -2% and the Z score worked out at 0.33.
For `O=C(COC[C@H]1CCCO1)Nc1cc2ccccc2nn1` the same measures were -8% and 0.93.
For `C=CCNC(=O)C1CC(c2ccccc2)CN(C(=O)c2ccc(OC)cc2)C1` (stereo not given) the same measures were -1% and 0.24.
With `CC=C(C)c1nc(C2(S(C)(=O)=O)CC2)no1`, the “% Inhibition” value was 3% and the Z score is reported as -0.45.
On the same counts, the results for `CCc1ccc(OCCN(C)C(=O)c2n[nH]c3c2CCC3)cc1` are -17% and 1.65.
For `CCc1nc(N2CCC(CNC(=O)[C@H]3CCOC3)CC2)no1`, the “% Inhibition” value was 2% and the Z score is listed as -0.38.
`CCc1ccc(-n2c(=O)[nH]c3c(c2=O)C(CC)(CC)Cc2ccccc2-3)cc1`: the “% Inhibition” value amounted to 1% and the Z score was -0.1.
On the same counts, the results for `COc1cc(=O)n2c(c1C(=O)N(C)Cc1nonc1C)CCN(C(=O)CC1CCCCC1)CC2` are -13% and 1.85.
For `O=S(=O)(c1ccc(F)cc1F)N1CCC[C@@H]1Cc1noc(-c2ccccc2)n1` the same measures were -2% and 0.35.
On to `Cc1cc(C)c(C(=O)N2CCC[C@H](C(=O)N3CCN(c4cccc(Cl)c4)CC3)C2)[nH]1`, for which the “% Inhibition” value is recorded as -8% and the Z score was 1.06.
On the same counts, the results for `O=C(CN(Cc1ccccc1)[C@@H](CO)C1CC1)Nc1ccnn1C1CCCC1` are 28% and -3.21.
For `Cc1ccc(C(C)NC(C)C(=O)O)cc1F` (stereo not given) the same measures were -11% and 1.41.
For `CC(NC(c1ccc(C2CCCCC2)cc1)C(C)C)c1nc2ccccc2c(=O)[nH]1` (stereo not given) the same measures were -12% and 1.87.
With `CC(C)(O)CCc1ccc(CN2CCNC(=O)[C@@H]2Cc2ccccc2)cc1`, the “% Inhibition” value was -3% and the Z score was determined as 0.42.
Take `CCc1nc(NCCN2CCS(=O)(=O)CC2)c2ccsc2n1`: the “% Inhibition” value was -1% and the Z score is 0.14.
On the same counts, the results for `COc1cccc(OC)c1-c1noc([C@H](C)n2nc(C)cc2C)n1` are 12% and -1.58.
For `CCc1nsc(N2CCc3cc(OC)c(OC)cc3C2)n1` the same measures were -5% and 0.69.
Take `NC(=O)c1cc2c(nc1-c1ccc3c(c1)OCO3)CCC2`: the “% Inhibition” value is listed as 5% and the Z score was -0.71.
In the case of `Cn1cc(OCc2cccc(Cl)c2)cn1`, the “% Inhibition” value is -20% and the Z score turned out to be 2.22.
Take `CN(C[C@H]1CCCOC1)C(=O)Nc1scc(C(C)(C)C)c1C#N`: the “% Inhibition” value is -12% and the Z score is 1.64.
In the case of `CC1(C)CN(c2ccnc(C(=O)NCc3ccc4c(c3)OCO4)c2)CCO1`, the “% Inhibition” value was determined as 6% and the Z score is given as -0.89.
In the case of `CCOC(=O)C(F)(F)C1(O)CCN(c2nc(C)ns2)CC1`, the “% Inhibition” value was 0% and the Z score was 0.09.
On the same counts, the results for `Cn1cccc1C(=O)NCc1ccccn1` are -5% and 0.57.
Turning to `O=C1OCC2(CCN(Cc3cccc4nonc34)CC2)O1`, the “% Inhibition” value was 0% and the Z score is reported as -0.09.
For `CCn1ncc2ncn(CC(=O)C(C)(C)C)c(=O)c21` the same measures were -5% and 0.75.
On the same counts, the results for `COc1ccc(Cc2noc([C@@]3(C)CCNC(=O)C3)n2)cc1F` are -1% and 0.12.
As for `CC(C)CCC[C@H]1CN(Cc2c[nH]cn2)CCO1`, the “% Inhibition” value is -4% and the Z score is 0.61.
On the same counts, the results for `O=C(Nc1ccc(F)c(Cl)c1)c1sccc1S(=O)(=O)N1CCc2ccccc2C1` are -3% and 0.41.
As for `C=CCOC[C@@H](O)CN(CCOC)Cc1cc(OC)cc(OC)c1`, the “% Inhibition” value was determined as 4% and the Z score is given as -0.6.
For `CC(C)Cc1nc([C@@H]2CCCCN2)n(CC(F)(F)F)n1` the same measures were -14% and 1.76.
For the molecule `O=C(O)C1ON(c2ccccc2)C(c2ccccc2)C1C(=O)Nc1ccc(F)cc1` (stereo not given), the “% Inhibition” value is listed as 1% and the Z score was -0.18.
As to `O=C(c1c(F)cccc1F)N1CCN(c2ccc(-n3ccnc3)nn2)CC1`, the “% Inhibition” value is -16% and the Z score is 3.05.

(Values after ChEMBL document CHEMBL4888484, “Replenishing the malaria drug discovery pipeline: Screening and hit evaluation of the MMV Hit Generation Library 1 (HGL1) against asexual blood stage Plasmodium falciparum ,using a nano luciferase reporter read-out” (2022).)
